Experimental data reported in article PMC8506653 (Clinical cancer research : an official journal of the …, 2021).

Columns and labels:
[1] = molecular target: nucleophosmin 1-anaplastic lymphoma kinase (NPM1-ALK) (Homo sapiens, UniProt P06748+Q9UM73); experiment: in vitro pharmacology assay, kinase inhibition; format: biochemical
F691 TKD mutation = details: cited from earlier work
AXL tyrosine kinase = AXL tyrosine kinase (Homo sapiens, UniProt P30530); experiment: in vitro pharmacology assay, kinase inhibition; format: biochemical
[2] = clinical pharmacokinetics after oral gilteritinib tablet; format: in vivo, human
[3] = tested on: leukemia cells expressing FLT3-ITD; experiment: apoptosis induction; format: cell-based
[4] = tested on: adult patients with R/R AML having a FLT3-ITD, -D835, or -I836 mutation; experiment: ADMIRAL phase 3 trial; format: in vivo, human
FLT3 phosphorylation = FLT3 phosphorylation (Homo sapiens, UniProt P36888); experiment: ex vivo FLT3 plasma inhibitory assay; format: cell-based; details: by day 8 of cycle 1, doses of ≥ 80 mg
MER = MER (Homo sapiens, UniProt Q12866); experiment: in vitro pharmacology assay, kinase inhibition; format: biochemical; details: at 5 nM
patients with R/R AML = experiment: Phase 1 dose-escalation study 2215-CL-0101; format: in vivo; details: for CR+CRh rate: FLT3-mutated patients
FLT3 = FLT3 (Homo sapiens, UniProt P36888); experiment: in vitro pharmacology assay, kinase inhibition; format: biochemical
CYP3A4 = experiment: drug interactions / metabolism; format: in vivo, human
ROS = ROS (Homo sapiens, UniProt P08922); experiment: in vitro pharmacology assay, kinase inhibition; format: biochemical; details: at 5 nM
[5] = tested on: patients with R/R AML who received 120 mg gilteritinib, regardless of FLT3 status; details: human, in vivo
adults with R/R AML = format: in vivo
[6] = first 30 days, both low and high intensity comparison groups

CCc1nc(C(N)=O)c(Nc2ccc(N3CCC(N4CCN(C)CC4)CC3)c(OC)c2)nc1NC1CCOCC1 [gilteritinib]
inhibition at 0.001 µM [1]: > 50% | activity against F691 TKD mutation (F691 TKD mutation): not active | inhibition at 0.001 µM (AXL tyrosine kinase): > 50% | dose proportionality ([2]; doses 20 to 450 mg once daily): dose-proportional pharmacokinetics | effect of a high fat meal on absorption ([2]; human, in vivo): no clinically significant impact | Tmax ([2]; human, plasma, po): 4 to 6 h | time to steady-state concentrations ([2]; once daily dosing): ≤ 15 days | accumulation index (Rac) ([2]; once daily dosing, range): 3.23 – 9.64 | estimated half-life (T1/2) ([2]; once daily, 20 to 450 mg): 113 h | apoptosis [3]: induced apoptosis | patients who proceeded to HSCT after treatment ([4]; 63/247 gilteritinib, 12/124 chemotherapy): 26% | CR, n (response rate) (95% confidence interval) ([4]; final analysis): 14% | CR/CRh, n (response rate) (95% confidence interval) ([4]; final analysis): 57 (23%) (18%, 29%) | CRh, n (response rate) (95% confidence interval) ([4]; final analysis): 22 (9%) (6%, 13%) | DOCR+CRh, median (range) duration of CR plus CRh ([4]; final analysis): 7.4 (<0.1+, 23.1+) months | DOCR, median (range) duration of CR ([4]; final analysis): 14.8 (0.6, 23.1+) months | DOCRh, median (range) duration of CRh ([4]; final analysis): 2.9 (<0.1+, 9.5+) months | CR rate ([4]; final analysis, FLT3-TKD only subgroup (n=31)): 10% | CR rate ([4]; final analysis, patients preselected for low intensity chemotherapy): 12% | CR rate ([4]; final analysis, patients preselected to receive high intensity chemotherapy): 15% | CR, n (response rate) (95% confidence interval) ([4]; final analysis, listed as Gilteritinib): 35 (14%) (10%, 19%) | rate of CR+CRh ([4]; first interim analysis, primary analysis population of 142 patients, lower 95% CI boundary 15%): 22% | event-free survival hazard ratio ([4]; in vivo): 0.79 | median overall survival ([4]; in vivo): 9.3 months | CR, n (response rate) (95% confidence interval) ([4]; interim analysis): 16 (12%) (7%, 18%) | CRh, n (response rate) (95% confidence interval) ([4]; interim analysis): 13 (9%) (5%, 16%) | DOCR+CRh, median (range) duration of CR plus CRh ([4]; interim analysis): 4.6 months | DOCR, median (range) duration of CR ([4]; interim analysis): 8.6 (1.0, 13.8) months | DOCRh, median (range) duration of CRh ([4]; interim analysis): 2.9 (0.1, 15.8+) months | patients independent at baseline who remained transfusion independent ([4]; interim analysis, 32 patients, any 56-day post-baseline period): 53% | CR/CRh, n (response rate) (95% confidence interval) ([4]; interim analysis, N=138 FLT3 mutation positive by companion diagnostic): 21% | DOCR+CRh, median (range) duration of CR plus CRh ([4]; interim analysis, listed as Gilteritinib): 4.6 (0.1, 15.8+) months | median time to first CR or CRh ([4]; interim analysis, range 0.9–9.6 months): 3.6 months | CR rate ([4]; patients with unfavorable risk cytogenetics (1/26 vs 3/11)): 4% | inhibition of FLT3 phosphorylation (FLT3 phosphorylation): greater than 90% | inhibition (MER): greater than half maximal inhibition | CR+CRh rate (patients with R/R AML; 80 mg dose level): 25.0% | CR+CRh rate (patients with R/R AML; 120 mg dose level): 23.2% | CR+CRh rate (patients with R/R AML; 200 mg dose level): 19.1% | CR+CRh rate (patients with R/R AML; 300 mg dose level): 30% | patients requiring dose interruption (patients with R/R AML; human, in vivo): 19% | maximum tolerated dose (MTD) (patients with R/R AML; oral, doses 20 to 450 mg investigated): 300 mg once daily | composite complete remission (CRc) rate (patients with R/R AML; steady-state Ctrough 100 to 500 ng/mL): 48% | composite complete remission (CRc) rate (patients with R/R AML; steady-state Ctrough <100 ng/mL): 22% | composite complete remission (CRc) rate (patients with R/R AML; steady-state Ctrough >500 ng/mL): 50% | inhibition at 0.001 µM (FLT3): > 50% | safety with concomitant strong or moderate CYP3A inhibitors (CYP3A4; Study 2215-CL-0101): not associated with clinically significant safety issues | decrease of gilteritinib exposure (CYP3A4; co-administration of rifampicin (a strong CYP3A inducer)): approximately 70% | metabolism (CYP3A4; in vivo): primarily metabolized by CYP3A4 | inhibition (ROS): greater than half maximal inhibition | earliest onset of differentiation syndrome after initiation of therapy [5]: 2 days | ALT increased leading to dose interruption ([5]; 3.6 months): 6% | ALT increased resulting in discontinuation ([5]; 3.6 months): 2% | AST increased leading to dose interruption ([5]; 3.6 months): 6% | AST increased resulting in discontinuation ([5]; 3.6 months): 2% | DS cases grade 1–2 ([5]; 3.6 months): 55% | DS cases grade 3–4 ([5]; 3.6 months): 36% | DS patients who recovered after treatment or dose interruption ([5]; 3.6 months): 82% | differentiation syndrome, FDA analysis ([5]; 3.6 months): 3% | differentiation syndrome, investigator-reported adverse event ([5]; 3.6 months): 1% | fever leading to dose interruption ([5]; 3.6 months): 4% | patients who discontinued treatment permanently due to an adverse reaction ([5]; 3.6 months): 7% | patients with dose reduction due to an adverse reaction ([5]; 3.6 months): 6% | patients with interruption due to an adverse reaction ([5]; 3.6 months): 29% | posterior reversible encephalopathy syndrome (PRES) ([5]; 3.6 months): 1% | patients with postbaseline QTcF > 480 msec (adults with R/R AML; 9/246): 4% | Grade ≥ 3 laboratory abnormality: decreased sodium (adults with R/R AML; [6]): 5% | Grade ≥ 3 laboratory abnormality: increased ALT (adults with R/R AML; [6]): 6% | Grade ≥ 3 laboratory abnormality: increased AST (adults with R/R AML; [6]): 5% | patients with maximum post-baseline QTcF of > 500 msec (adults with R/R AML; in vivo): < 1% | patients with maximum post-baseline increase in QTcF of > 30 to ≤ 60 msec (adults with R/R AML; in vivo): 25% | patients with post-baseline increase in QTcF of > 60 msec (adults with R/R AML; in vivo): 5% | Abdominal pain, Any grade (adults with R/R AML; preselected high intensity chemotherapy subgroup, first 30 days): 11%
